Inconclusive results, whose numbers are uncertain, are shown with a selection of clear calls. For some of these results: No potency is given beside an inconclusive call; the fits are too rough. The source made the active and inactive calls. Calls come from the whole dose curve; as a rule, active = well fitted curve in the direction sought with a large enough effect in the repeat runs; inconclusive = weak or mixed curves; inactive = no such curve, though single readings can be large; an effect the other way counts as inactive or inconclusive.
assay: qHTS RealTime-Glo MT Cell Viability Assay in HEK293 cells - 0 hour (AID 1224880); details: RealTime-Glo luminescence; series mostly up to 76.8 µM; activity change, negative = cytotoxicity: at the top concentration; note: nearly all actives have a fitted effect of over 45% in size; note: potency is the fitted concentration of half-maximal effect; for activity change, negative = cytotoxicity: top concentration of the series differs between compounds
In short: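 Viable HEK293 cells reduce a cell-permeant prosubstrate; the product diffuses out and is consumed by NanoLuc in the medium to give light. Compounds went in after a 5 h incubation and plates were read over the treatment course.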
% is set by controls: 0 for no effect and ±100 for the full control effect; tags give direction and shape of the fitted curve.

| Structure (SMILES) | activity change, negative = cytotoxicity | Potency |
| --- | --- | --- |
| C=C(C)CCCC(C)CCO (stereo not given) | inactive: -11.1% | – |
| CN(C)C(=O)Oc1ccc[n+](C)c1 | inactive: 11% [at 35.3 µM] | – |
| C=CCc1ccccc1OCC(O)CNC(C)C (stereo not given) | inactive: 8.45% [at 35.3 µM] | – |
| Clc1sc(Cl)c(Cl)c1Cl | inactive: 11.5% | – |
| COc1ncnc(NS(=O)(=O)c2ccc(N)cc2)c1OC | – | inconclusive [falling, single point] |
| C=CC(=O)OCCCCCC | inactive: -11.4% | – |

assay: A CellTox Green Cytotoxicity Assay to monitor cytotoxicity in HEK293 cells - 32 hour (AID 1224881); details: CellTox Green fluorescence; series mostly up to 76.8 µM; cytotoxicity increase: at the top concentration; note: nearly all actives have a fitted effect of over 40% in size
In short: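 Fluorescence intensity, read at 0, 8, 16, 24, 32 and 40 h of compound treatment, reflected dye binding to DNA of dead HEK293 cells; compounds (23 nL, DMSO) were added 5 h after plating cells with reagent.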

| Structure (SMILES) | Potency | cytotoxicity increase |
| --- | --- | --- |
| Cc1c(C(N)=O)cc([N+](=O)[O-])cc1[N+](=O)[O-] | inactive | – |
| C=CCN1C[C@H](C(=O)N(CCCN(C)C)C(=O)NCC)C[C@@H]2c3cccc4[nH]cc(c34)C[C@H]21 | – | inactive: 0.343% [at 35.3 µM] |
| CCCc1ccc(OC)cc1 | – | inactive: 0.981% |
| Cc1cccc([N+](=O)[O-])c1C | inactive | – |

Source: PubChem BioAssay (Tox21)
